Data published in PubChem BioAssay AID588855 (National Center for Advancing Translational Sciences (NCATS), 2011).
The campaign covered roughly 410,000 compounds. About 5,000 (1.2%) were called active. This list was built around the results that the source calls inconclusive (neither active nor inactive); the mix of calls is not that of the screen. Calls follow the shape of the dose curve; as a rule, active = well fitted inhibition curve with a large enough effect; inconclusive = small, poorly fitted or top-dose-only effect; inactive = no such curve, though single readings can be large or run the other way. Potencies of inconclusive entries are doubtful fits and often do not repeat.

Assay: qHTS for Inhibitors of TGF-b; also: nearly all actives have a fitted effect of over 65% in size
Details: HepG2 CAGA-GFP TGF-b/SMAD3 reporter, GFP fluorescence, 18 h, TGF-beta stimulated, 500 pg/mL final; series mostly up to 46.1 µM
Procedure, shortened: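 Cell-based qHTS in HEPG2 carrying a CAGA-GFP Smad reporter; compounds added before 500 pg/mL final TGF-beta, 18 h incubation at 37 degrees C, GFP fluorescence quantified per cell by imaging cytometry.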
Potency is read from the fitted curve at half-maximal effect; tags tell the direction and shape of the fitted curve.

SMILES | Potency
CC1=CCC2C(=O)N(c3ccc(N4CCOCC4)cc3)C(=O)C2C1 (stereo not drawn) | inactive
Cc1ccc(C(=O)CC(=O)c2cc(Cl)ccc2O)cc1 | inconclusive: 35.5 µM [inhibitor, single point]
CC(C)(C)NC(=S)NNC(=O)c1cccc(Br)c1 | inconclusive: 20 µM [inhibitor, partial curve, poor fit]
CC(C(=O)NCc1ccc2c(c1)OCO2)N(c1ccccc1)S(C)(=O)=O (stereo not drawn) | inconclusive: 0.447 µM [inhibitor, partial curve, poor fit]
COc1ccc(NC(=O)CC2C(=O)N(c3ccc(C)cc3)C(=O)N2Cc2ccc3c(c2)OCO3)cc1 (stereo not drawn) | inconclusive: 1.12 µM [inhibitor, full curve, poor fit]
Cc1ccc(OCCNC(=O)/C=C/c2ccc([N+](=O)[O-])cc2)cc1C | inconclusive: 1.41 µM [inhibitor, full curve]
COc1ccc(Nc2nc3cc(Cl)c(Cl)cc3n3cnnc23)cc1Cl | inactive
Cn1ncc([N+](=O)[O-])c1C(=O)Nc1ccc(Cl)cc1 | inactive
CCc1ccc(CNC(=O)CN(c2ccc(C)cc2)S(=O)(=O)N(C)C)cc1 | inconclusive: 7.94 µM [inhibitor, partial curve]
Nc1c(N=Nc2ccccc2F)c(=O)[nH]n1-c1ccccc1 | inconclusive: 3.16 µM [inhibitor, single point]
CC(C)c1ccc(NC(=O)c2ccc3c(c2)CCCN3S(C)(=O)=O)cc1 | inactive
CC(=O)NCCc1nc(-c2ccc(Cl)cc2)no1 | inconclusive: 35.5 µM [inhibitor, single point]
CC1=C/C(=N\NC(=S)Nc2cccnc2)CC(C)(C)C1 | inconclusive: 5.01 µM [inhibitor, full curve, poor fit]
C[C@H](CCC(=O)O)[C@H]1CC[C@H]2[C@@H]3C(=O)C[C@@H]4CC(=O)CC[C@]4(C)[C@H]3CC(=O)[C@]12C | inactive
COc1ccc(N2CCN(C(=O)COCC(=O)O)CC2)cc1 | inactive
COc1ccc(OC)c(NC(=O)CCc2c(C)nn(-c3ccc(N4CCCC4)nn3)c2C)c1 | inconclusive: 35.5 µM [inhibitor, partial curve, poor fit]
COCCNC(=S)N1CCN(c2nc(-c3ccc(F)cc3)cs2)CC1 | inconclusive: 20 µM [inhibitor, partial curve]
CC(C)(C)OC(=O)N1CCC(c2c(C(=O)NCCCN3CCc4ccccc4C3)cnn2-c2ccccc2)CC1 | inconclusive: 35.5 µM [inhibitor, single point]
Cc1cccc2c(=O)c(-c3ccc4c(c3)OCO4)c(NC(=O)c3ccco3)oc12 | inactive
Cc1ccc(N2CC(NC(=O)c3ccc(S(=O)(=O)N4CCCC4)cc3)CC2=O)cc1 (stereo not drawn) | inactive
CCOc1ccccc1NC(=O)Cn1c(=O)n(CCCC(=O)NCCc2ccc(C)cc2)c(=O)c2ccccc21 | inconclusive: 11.2 µM [inhibitor, partial curve, poor fit]
Cc1cccc(C(O)c2ncc(-c3ccccc3F)[nH]2)c1C (stereo not drawn) | inactive
COc1cccc(C(C)(O)c2nc(-c3cc4ccccc4o3)cs2)c1 (stereo not drawn) | active: 8.91 µM

SMILES | Potency
CC1Cc2ccccc2N1C(=O)c1cccnc1 (stereo not drawn) | inactive
CC(C)(C)Cc1c(-c2ccc(F)cc2)nc2ccc(Cl)cn12 | active: 11.2 µM
COc1ccc2[nH]c(=O)c(CNc3cc(C)ccc3C)cc2c1 | inactive
Cc1nc2sccn2c(=O)c1CCN1CCC(=C(c2ccc(F)cc2)c2ccc(F)cc2)CC1 | inconclusive: 25.1 µM [inhibitor, single point]
COc1ccc(-n2ncc(C(=O)N3CCN(c4ncccn4)CC3)c2C2CCN(C(=O)OC(C)(C)C)CC2)cc1 | inactive
Cc1cc(Cl)ccc1C(O)c1ncc(-c2ccccc2C(F)(F)F)[nH]1 (stereo not drawn) | inconclusive: 20 µM [inhibitor, single point]
COc1cc(OC)c(NC(=O)c2cc3ccccc3cc2O)cc1Cl | inconclusive: 17.8 µM [inhibitor, single point]
CC(C)CC(=O)Nc1ccc(S(=O)(=O)Nc2cc3c(cc2N2CCOCC2)n(C)c(=O)c(=O)n3C)cc1 | inconclusive: 28.2 µM [inhibitor, single point]
O=C(CCc1cn(Cc2ccccc2Cl)c2ccccc12)NC1CCCCC1 | inconclusive: 14.1 µM [inhibitor, partial curve, poor fit]
C/C(N)=C(/C#N)C(=O)COC(=O)c1cc(-c2ccc(Br)cc2)nc2ccccc12 | inconclusive: 35.5 µM [inhibitor, single point]
CCCCOP(=O)(c1ccc(N(C)C)cc1)C(O)c1ccc(OC)c(OC)c1 (stereo not drawn) | inactive
C=C(CN(C)C)C(=O)c1cc(C)ccc1C | active: 2.51 µM
O=C(Nc1ccc(F)c(Cl)c1)C1CC(=O)n2c(nc3ccccc32)N1 (stereo not drawn) | inactive
CCCCN1C(C(=O)Nc2ncccn2)=C(O)c2ccccc2S1(=O)=O | inactive
Cc1ccc(S(=O)(=O)N2C[C@H]3n4c(=O)ccc(=O)n4C[C@H](OC(=O)NCC4CCCCC4)[C@@]3(O)C2)cc1 | inconclusive: 31.6 µM [inhibitor, single point]
O=C(Nc1nccs1)C1Cc2ccccc2CN1S(=O)(=O)c1ccc(F)cc1 (stereo not drawn) | inactive
COc1ccc(CC(=O)NC2CCN(Cc3nnnn3C(C)(C)C)CC2)cc1OC | inactive
CCOC(=O)CC(S(=O)(=O)c1ccccc1)S(=O)(=O)c1ccccc1 | inconclusive: 35.5 µM [inhibitor, single point]
COc1ccc(C)cc1NC(=O)C1CCN(S(=O)(=O)c2ccc3[nH]c4c(c3c2)CCCCC4)CC1 | inconclusive: 2.24 µM [inhibitor, partial curve, poor fit]
COc1ccccc1NS(=O)(=O)c1ccc(C(=O)N2CCCCCCC2)cc1 | inconclusive: 35.5 µM [inhibitor, single point]
CCCCn1c(N)c(N(CCOC)C(=O)CSc2n[nH]c(-c3ccc(C)cc3)n2)c(=O)[nH]c1=O | inconclusive: 14.1 µM [inhibitor, single point]
CC(C)(C)c1nc2c(s1)CCc1onc(-c3ccc(Cl)cc3)c1-2 | inactive
O=C(c1ccc(F)cc1)C1CCN(C(=S)Nc2ccccc2)CC1 | inconclusive: 35.5 µM [inhibitor, single point]

SMILES | Potency
Cc1nc2nc(SCC(=O)Nc3cccc(Cl)c3)nn2c(C)c1Cc1ccccc1 | inactive
CCNc1nc(Oc2c(Cl)cccc2Cl)cc(C(F)(F)F)n1 | inconclusive: 35.5 µM [inhibitor, single point]
Cc1cc2cc(C(=O)N3CCc4c([nH]c5ccccc45)C3c3ccccn3)ccc2o1 (stereo not drawn) | inconclusive: 22.4 µM [inhibitor, single point]
CCOC(=O)c1cncc(NC(=O)c2ccccc2)c1 | inconclusive: 35.5 µM [inhibitor, single point]
CCCCn1c(N)c(N(Cc2ccccc2OC)C(=O)c2ccc([N+](=O)[O-])s2)c(=O)[nH]c1=O | inconclusive: 22.4 µM [inhibitor, single point]
CN(C)c1ccc(N=Nc2nc3ccccc3n2C)cc1 | inconclusive: 7.94 µM [inhibitor, partial curve, poor fit]
O=C(N/N=C/c1ccc2c(c1)OCO2)c1ccc2c(c1)OCO2 | inactive
O=c1ccc(NS(=O)(=O)c2ccccc2)cn1Cc1ccc(Cl)c(Cl)c1 | inconclusive: 35.5 µM [inhibitor, single point]
CCOC1=C2CN(S(=O)(=O)c3ccc(C)cc3)[C@H](c3cccc4ccccc34)C[C@H]2C(C#N)(C#N)C(C#N)(C#N)C1 | inconclusive: 17.8 µM [inhibitor, partial curve, poor fit]
Fc1ccc(Sc2nc(-c3ccccc3)nnc2C(F)(F)F)cc1 | inconclusive: 35.5 µM [inhibitor, single point]
OCC1CCCCN1C(=S)Nc1cccc(Cl)c1 (stereo not drawn) | inconclusive: 0.562 µM [inhibitor, partial curve, poor fit]
COC(=O)NCc1ccc(Cl)c(Cl)c1 | inactive
Cc1ccc(NC(=O)C(C)N=C2NS(=O)(=O)c3ccccc32)cc1F (stereo not drawn) | inactive
COCCn1c(=O)[nH]c(=O)c2c1nc(-c1ccc(-c3ccc(Cl)cc3[N+](=O)[O-])o1)n2Cc1ccccc1 | inconclusive: 22.4 µM [inhibitor, single point]
Cc1cccc(N2CCN(CCNC(=O)c3cc4c(s3)CS(=O)(=O)C4)CC2)c1C | inconclusive: 11.2 µM [inhibitor, single point]
CC1(C)CC(=O)C/C(=N/Nc2nc3ccccc3s2)C1 | inconclusive: 35.5 µM [inhibitor, single point]
CN(CCNC(=O)c1cccc(N2CCCC2=O)c1)Cc1ccccc1 | inactive
COc1ccc(Cl)cc1NC(=O)Nc1cccc([N+](=O)[O-])c1C | inconclusive: 6.31 µM [inhibitor, single point]
CN(CC(=O)Nc1ccccc1C(F)(F)F)C(=O)Cn1c(=O)oc2ccccc21 | inconclusive: 10 µM [inhibitor, partial curve, poor fit]
CCc1sc(C(C2C(=O)CC(C)(C)CC2=O)C2C(=O)CC(C)(C)CC2=O)cc1[N+](=O)[O-] | inconclusive: 20 µM [inhibitor, single point]
CCOCCCN(C)C1CCN(C(=O)c2oc3ccccc3c2NC(=O)c2cccc([N+](=O)[O-])c2)CC1 | inactive
O=C(COC(=O)Cc1ccccc1F)Nc1ccc(SC(F)F)cc1 | inactive
